Source: paper PMC4336329 (PLoS ONE, 2015)
In all, about 310,000 compounds went through this assay and about 14,000 (4.5%) showed an effect of 50% or more. Effects have a minus sign here. The list shows a part of the results.

What follows are molecules tested against human ether-à-go-go-related gene (hERG) potassium channel (human, UniProt Q12809) (assay: primary screen, population patch clamp on CHO cells stably expressing hERG).
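Further: peak tail current of the secondary pulse compared with the same well before compound.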

human ether-à-go-go-related gene (hERG) potassium channel, sequence (Q12809 whole entry, looked up): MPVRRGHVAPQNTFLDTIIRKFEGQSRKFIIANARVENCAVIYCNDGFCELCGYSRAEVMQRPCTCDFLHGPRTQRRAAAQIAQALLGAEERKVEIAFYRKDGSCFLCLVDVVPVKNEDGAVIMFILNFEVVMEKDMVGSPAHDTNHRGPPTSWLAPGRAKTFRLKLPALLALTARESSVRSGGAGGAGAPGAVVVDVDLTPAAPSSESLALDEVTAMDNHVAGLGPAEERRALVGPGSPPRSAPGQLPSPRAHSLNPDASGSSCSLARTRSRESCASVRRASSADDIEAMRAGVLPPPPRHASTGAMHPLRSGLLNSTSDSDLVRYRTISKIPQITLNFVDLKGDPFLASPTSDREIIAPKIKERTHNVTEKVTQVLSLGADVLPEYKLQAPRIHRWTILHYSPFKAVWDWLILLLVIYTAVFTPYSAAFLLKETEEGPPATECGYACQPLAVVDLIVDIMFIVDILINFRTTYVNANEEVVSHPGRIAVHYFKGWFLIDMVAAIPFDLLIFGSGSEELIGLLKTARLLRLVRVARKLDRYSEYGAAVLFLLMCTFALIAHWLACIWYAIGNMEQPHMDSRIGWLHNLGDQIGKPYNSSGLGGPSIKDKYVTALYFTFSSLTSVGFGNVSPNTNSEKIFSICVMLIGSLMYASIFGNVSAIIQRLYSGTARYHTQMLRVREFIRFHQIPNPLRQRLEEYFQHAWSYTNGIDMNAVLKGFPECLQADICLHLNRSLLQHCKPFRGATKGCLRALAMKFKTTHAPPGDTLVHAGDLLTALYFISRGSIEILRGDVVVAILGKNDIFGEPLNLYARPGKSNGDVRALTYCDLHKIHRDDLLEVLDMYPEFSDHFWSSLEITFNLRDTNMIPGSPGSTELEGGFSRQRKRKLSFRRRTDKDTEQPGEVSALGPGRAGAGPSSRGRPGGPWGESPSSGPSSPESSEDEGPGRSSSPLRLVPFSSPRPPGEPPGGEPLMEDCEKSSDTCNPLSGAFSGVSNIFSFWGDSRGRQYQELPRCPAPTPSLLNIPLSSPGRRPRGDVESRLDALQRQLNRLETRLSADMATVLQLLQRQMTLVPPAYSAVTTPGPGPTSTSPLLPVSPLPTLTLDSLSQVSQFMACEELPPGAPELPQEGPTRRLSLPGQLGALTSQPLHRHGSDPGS

Structure (SMILES) | hERG current change (%, negative = inhibition) at 10uM
COc1ccc(C(=O)N2CCN(C3CCCCC3)CC2)c(OC)c1 | -73.6%
CC1CCCCN1C(=O)Cn1cc(C(=O)c2ccco2)c2ccccc21 (stereo not shown) | -11.5%
Cc1ccc(NC(=O)C(C)[n+]2ccccc2)cc1[N+](=O)[O-].[Br-] (stereo not shown) | 1.75%
COc1ccccc1NC(=O)Cc1noc(CSc2nnc(C)s2)n1 | -4.77%
CN(C)CCN(C(=O)C1CCN(S(=O)(=O)c2cccs2)CC1)c1nc2c(F)cccc2s1.Cl | -16.4%
O=C(COc1ccc(/C=N/NC(=O)c2ccncc2)cc1)Nc1ccccc1 | 12%
Cc1c2cc(O)c(=O)cc-2oc2cc(O)c(O)cc12 | -3.84%
CSc1nsc(/C=C/Nc2ccc(Cl)cc2)c1C#N | 8.59%
O=C(CCC(=O)OC(C(=O)c1ccccc1)c1ccccc1)Nc1ccccc1 (stereo not shown) | 3.27%
Cc1ccc(/C=C2/NC(=O)N(Cc3ccccc3)C2=O)s1 | -16.6%
Cc1ccc2nc3c(c(Nc4ccccc4)c2c1)CCC3.Cl | -71.7%
Cc1cccc(NC(=O)c2ccc3[nH]c(=O)c(=O)[nH]c3c2)n1 | -4.79%
N#Cc1c(NC(=O)CSC2=NCCS2)sc2c1CCCC2 | -6.3%
Cc1ccc(N(CC(=O)NCc2ccc3c(c2)OCO3)S(=O)(=O)c2c(C)noc2C)cc1 | 2.53%
O=Nc1c(O)n(Cc2ccc(Cl)cc2Cl)c2ccccc12 | 4.26%
Cc1cc(Cl)nc(Cl)c1C(=O)NCCc1ccccc1 | 1.69%
COc1ccc(C(=O)NCc2nnc(SCC(=O)Nc3nnc(C)s3)o2)cc1 | 14.5%
Cc1occc1C(=O)N1CCCC(Nc2ccc(F)cc2)C1 (stereo not shown) | -3.68%
CNC(=S)NCCN1CCOCC1 | -9.17%
CCCc1nc2ccccc2c(C(=O)OCC(=O)NCc2ccco2)c1CC | -27.6%
O=C1NC(=O)C(=Cc2cccc(OCCOc3ccccc3)c2)C(=O)N1 | -1.14%
COC(=O)c1ccc(NC(=O)CN(Cc2ccc(Cl)cc2)S(C)(=O)=O)cc1 | -1.02%
O=C(CCC(=O)N1CCCC1)N1CCCC1 | 36.1%
Cc1cc(C)c(C)c(SCC(=O)Nc2oc(C)c3c(C)n[nH]c(=O)c23)c1C | -32.8%
Cc1ccc(C(=O)N2CCN(c3nc4ccccc4n3C)CC2)cc1 | -70.3%
